Source: patent EP0386044B1, “HYPOGLYCAEMIC PEPTIDES” (MONASH UNIVERSITY, priority 1987, dated 1997)
Not every detail of the peptide structures is certain; ends, links or a residue may be inferred. Some entries repeat one wording, which the source may state once for all of them. Where a SMILES comes first, the peptide text is derived from it.

Key:
[1] = tested on: isolated rat hemidiaphragms; assay: Isolated muscle assay for stimulation of glycogen synthesis; assay type: cell-based; conditions: peptide 100µg/ml
[2] = tested on: isolated rat hemidiaphragms; assay: Glycogen deposition by isolated rat hemidiaphragms; assay type: cell-based; conditions: for glycogen deposition: low or high insulin concentrations (10^2 and 10^4 µU/ml)
rats [3] = assay: Decrease in blood glucose level in rats following intravenous injection of peptides; assay type: in vivo; conditions: for hypoglycaemic effect (change in blood glucose level), in words: injection of peptide; for Decrease in blood from basal / Difference from control mean: intravenous injection, peptide 0.5 µmol/100g; for Decrease in blood from basal: change of blood glucose from basal level (4.0 - 4.4 mmol glucose/l) at time 0, control 1.05; for Difference from control mean: difference of blood glucose decrease from control mean (1.05)
Text: Values are changes (means ± SEM) of blood glucose from the basal level (4.0 - 4.4 mmol glucose/l) at time 0. Differences between the control and test groups were statistically evaluated according to Student's t-test. N.S. indicates 2P > 0.05.
Similar results are illustrated graphically in Figure 9.

isolated rat adipocytes = assay: Glucose oxidation (metabolism of glucose) in isolated rat adipocytes; assay type: cell-based; conditions: presence and absence of added insulin, peptide 10 µg per 3 ml culture, Figure 14
Rat Hemidiaphragms = assay: Glucose uptake in rat hemidiaphragms in vitro; assay type: cell-based; conditions: summary of Table 4
[4] = tested on: cultured muscle cells (L6 rat skeletal muscle cell line); assay: Cultured cell assay for stimulation of glucose uptake; assay type: cell-based; conditions: peptide 10µg/ml
Text: In these assays collagenase-dispersed rat adipocytes, cultured muscle cells (L6 rat skeletal muscle cell line) and hemidiaphragm preparations were employed.
The effect of the β imide form peptides on glucose metabolism is further shown by their ability to stimulate glucose uptake and glycogen synthesis by cultured muscle cells and isolated rat hemidiaphragms.

rats [5] = assay: Intravenous insulin sensitivity (insulin tolerance) test; assay type: in vivo; conditions: rats trained to eat on schedule, anaesthetised with pentobarbitone; insulin plus peptide intravenously; Figure 10
rats [6] = assay: Glucose tolerance test in normal rats; assay type: in vivo; conditions: dose 200 µg/Kg body weight, Figure 11

Compound	Rate of Increase from Basal [1]	stimulation of glucose uptake, in words (Rat Hemidiaphragms)	Rate of Increase from Basal [4]	also measured
CC(C)C[C@H](NC(=O)[C@H](CCCNC(=N)N)NC(=O)[C@H](CO)NC(=O)[C@H](CC(C)C)NC(=O)[C@H](Cc1ccc(O)cc1)NC(=O)[C@@H](N)CS)C(=O)N[C@@H](Cc1ccccc1)C(=O)N[C@H]1CC(=O)N([C@@H](CC(N)=O)C(=O)N[C@@H](CC(N)=O)C(=O)O)C1=O [Pep P197, Cys-Tyr-Leu-Ser-Arg-Leu-Phe-Asp-Asn-Asn]	0.17 µmol glycogen/g tissue/h	–	–	–
CC(C)C[C@H](NC(=O)[C@H](CCCNC(=N)N)NC(=O)[C@H](CO)NC(=O)[C@@H](N)CC(C)C)C(=O)N[C@@H](Cc1ccccc1)C(=O)N[C@H]1CC(=O)N([C@@H](CC(N)=O)C(=O)N[C@@H](C)C(N)=O)C1=O [Pep (6-13) imide, leu-ser-arg-leu-phe-β-imidoasp-asn-ala]	0.74 µmol glycogen/g tissue/h	highly significant stimulation	3.3 µmol glucose/hour	glycogen deposition, basal level ([2]; absence of added insulin): no effect on the basal level; glycogen deposition [2]: significantly increased glycogen deposition; hypoglycaemic effect (change in blood glucose level), in words (rats [3]; Table 2 and Figure 9, listed as Pep (6-13) β imide form): active; hypoglycaemic effect (change in blood glucose level), in words (rats [3]; Table 2 and Figure 9, listed as β imide form of Pep (6-13)): significant hypoglycaemic effect; Decrease in blood from basal (rats [3]): 1.90; Difference from control mean (rats [3]): 0.85; metabolism of glucose (glucose oxidation) (isolated rat adipocytes): stimulated metabolism of glucose; potentiation of the action of insulin (rats [5]): The effect depended on the dose of peptide; return of blood glucose levels to basal level (rats [6]): accelerates the return of blood glucose levels in rats to basal level
CC(C)C[C@H](NC(=O)[C@H](CCCNC(=N)N)NC(=O)[C@H](CO)NC(=O)[C@@H](N)CC(C)C)C(=O)N[C@@H](Cc1c[nH]cn1)C(=O)N[C@H]1CC(=O)N([C@@H](CC(N)=O)C(=O)N[C@@H](C)C(=O)O)C1=O [Pep P078, Leu-Ser-Arg-Leu-His-Asp-Asn-Ala]	0.11 µmol glycogen/g tissue/h	–	–	–
CC(C)C[C@H](NC(=O)[C@H](CCCNC(=N)N)NC(=O)[C@@H](N)CO)C(=O)N[C@@H](Cc1ccccc1)C(=O)N[C@H]1CC(=O)N([C@@H](CC(N)=O)C(=O)N[C@@H](C)C(=O)O)C1=O [Pep 7-13, Ser-Arg-Leu-Phe-Asp-Asn-Ala]	–	on the borderline of significance	1.5 µmol glucose/hour	–
CC(C)C[C@H](NC(=O)[C@H](CCCNC(=N)N)NC(=O)[C@H](CO)NC(=O)[C@@H](N)CC(C)C)C(=O)N[C@@H](Cc1ccccc1)C(=O)N[C@H]1CC(=O)N([C@@H](CC(N)=O)C(=O)N[C@@H](C)C(=O)NCC(=O)O)C1=O [Pep P063, Leu-Ser-Arg-Leu-Phe-Asp-Asn-Ala-Gly]	–	–	1.9 µmol glucose/hour	–
CC(C)C[C@H](NC(=O)[C@H](CCCNC(=N)N)NC(=O)[C@H](CO)NC(=O)[C@H](CC(C)C)NC(=O)[C@H](Cc1ccc(O)cc1)NC(=O)[C@@H](N)CS)C(=O)N[C@@H](Cc1ccccc1)C(=O)N[C@H]1CC(=O)N([C@@H](CC(N)=O)C(=O)N[C@@H](C)C(=O)O)C1=O [Pep P202, Cys-Tyr-Leu-Ser-Arg-Leu-Phe-Asp-Asn-Ala]	0.44 µmol glycogen/g tissue/h	–	1.9 µmol glucose/hour	–
CC(C)C[C@H](NC(=O)[C@H](CCCNC(=N)N)NC(=O)[C@H](CO)NC(=O)[C@@H](N)CC(C)C)C(=O)N[C@@H](Cc1ccccc1)C(=O)N[C@@H](CC(=O)O)C(=O)N[C@@H](CC(N)=O)C(=O)N[C@@H](C)C(N)=O [Pep (6-13), leu-ser-arg-leu-phe-asp-asn-ala] (H-LSRLFDNA-NH2)	–	–	–	glycogen deposition [2]: inactive; hypoglycaemic effect (change in blood glucose level), in words (rats [3]; Table 2 and Figure 9): active only in the β imide form; Decrease in blood from basal (rats [3]): 1.05; Difference from control mean (rats [3]): 0.00
CC(C)C[C@H](NC(=O)[C@H](CCCCN)NC(=O)[C@H](CO)NC(=O)[C@@H](N)CC(C)C)C(=O)N[C@@H](Cc1ccccc1)C(=O)N[C@H]1CC(=O)N([C@@H](CC(N)=O)C(=O)N[C@@H](C)C(=O)O)C1=O [Pep P090, Leu-Ser-Lys-Leu-Phe-Asp-Asn-Ala]	0.16 µmol glycogen/g tissue/h	–	–	–
CC(C)C[C@H](NC(=O)[C@H](CCCNC(=N)N)NC(=O)[C@H](CO)NC(=O)[C@@H](N)CC(C)C)C(=O)N[C@@H](Cc1ccccc1)C(=O)N[C@H]1CC(=O)N([C@@H](CCC(N)=O)C(=O)N[C@@H](C)C(=O)O)C1=O [Pep P076, Leu-Ser-Arg-Leu-Phe-Asp-Gln-Ala]	0.30 µmol glycogen/g tissue/h	–	–	–
CC[C@H](C)[C@H](NC(=O)[C@H](CCCNC(=N)N)NC(=O)[C@H](CO)NC(=O)[C@@H](N)CC(C)C)C(=O)N[C@@H](Cc1ccccc1)C(=O)N[C@H]1CC(=O)N([C@@H](CC(N)=O)C(=O)N[C@@H](C)C(=O)O)C1=O [Pep P087, Leu-Ser-Arg-Ile-Phe-Asp-Asn-Ala]	0.36 µmol glycogen/g tissue/h	–	–	–
CC(C)C[C@H](NC(=O)[C@H](CCCNC(=N)N)NC(=O)[C@H](CO)NC(=O)[C@@H](N)CC(C)C)C(=O)N[C@@H](Cc1ccccc1)C(=O)N[C@@H](CC(=O)O)C(N)=O [Pep (6-11)] (H-LSRLFD-NH2)	–	–	–	hypoglycaemic effect (change in blood glucose level), in words (rats [3]; Table 2 and Figure 9): active only in the β imide form; Decrease in blood from basal (rats [3]): 1.28; Difference from control mean (rats [3]): 0.23
CC(C)C[C@H](N)C(=O)N[C@@H](CO)C(=O)N[C@@H](CCCNC(=N)N)C(=O)N[C@H](C(=O)N[C@@H](Cc1ccccc1)C(=O)N[C@H]1CC(=O)N([C@@H](CC(N)=O)C(=O)N[C@@H](C)C(=O)O)C1=O)C(C)C [Pep P086, Leu-Ser-Arg-Val-Phe-Asp-Asn-Ala]	–	–	4.9 µmol glucose/hour	–
CC(C)C[C@H](NC(=O)[C@H](CCCNC(=N)N)NC(=O)[C@H](CO)NC(=O)[C@H](CC(C)C)NC(=O)[C@H](Cc1ccc(O)cc1)NC(=O)[C@@H](N)CS)C(=O)N[C@@H](Cc1ccccc1)C(=O)N[C@H]1CC(=O)N([C@@H](CC(N)=O)C(=O)N[C@@H](C)C(=O)O)C1=O [Pep P168, Cys-Tyr-Leu-Ser-Arg-Leu-Phe-Asp-Asn-Ala]	–	–	4.0 µmol glucose/hour	–
CC[C@H](C)[C@H](NC(=O)[C@@H](NC(=O)[C@@H]1CCCN1C(=O)[C@@H](N)Cc1ccccc1)[C@@H](C)O)C(=O)N1CCC[C@H]1C(=O)N[C@@H](CC(C)C)C(=O)N[C@@H](CO)C(=O)N[C@@H](CCCNC(=N)N)C(=O)N[C@@H](CC(C)C)C(=O)N[C@@H](Cc1ccccc1)C(=O)N[C@H]1CC(=O)N([C@@H](CC(N)=O)C(=O)N[C@@H](C)C(=O)N[C@@H](CCSC)C(=O)N[C@@H](CC(C)C)C(=O)O)C1=O [Pep 1-15]	–	highly significant stimulation	–	–
CC(C)C[C@H](NC(=O)[C@@H](N)CCCNC(=N)N)C(=O)N[C@@H](Cc1ccccc1)C(=O)N[C@H]1CC(=O)N([C@@H](CC(N)=O)C(=O)N[C@@H](C)C(=O)O)C1=O [Pep 8-13]	–	highly significant stimulation	–	–
C[C@H](NC(=O)[C@H](CC(N)=O)N1C(=O)C[C@H](NC(=O)[C@@H](N)Cc2ccccc2)C1=O)C(=O)O [Pep 10-13]	–	no effect	–	–
